# In PubChem BioAssay AID2551 (National Center for Advancing Translational Sciences (NCATS), 2010):
# Several values for one entry are separate records, joined by “and”; a condition that tells them apart may be missing. Equal values may be shown once. In all, about 310,000 compounds went through this assay and about 17,000 (5.5%) were called active. About 11% were inconclusive and are not listed. Calls come from the whole dose curve; as a rule, active = well fitted inhibition curve with a large enough effect; inconclusive = small, poorly fitted or top-dose-only effect, or effect the other way; inactive = no such curve, though single readings can be large or run the other way. The entries are a selection whose mix differs from that of the whole data set. A structure can be active in one record and inactive in another.
# Biological target: Nuclear receptor ROR-gamma (Mus musculus) (UniProt P51450)
# Chain of UniProt P51450 (P51450 whole entry, looked up): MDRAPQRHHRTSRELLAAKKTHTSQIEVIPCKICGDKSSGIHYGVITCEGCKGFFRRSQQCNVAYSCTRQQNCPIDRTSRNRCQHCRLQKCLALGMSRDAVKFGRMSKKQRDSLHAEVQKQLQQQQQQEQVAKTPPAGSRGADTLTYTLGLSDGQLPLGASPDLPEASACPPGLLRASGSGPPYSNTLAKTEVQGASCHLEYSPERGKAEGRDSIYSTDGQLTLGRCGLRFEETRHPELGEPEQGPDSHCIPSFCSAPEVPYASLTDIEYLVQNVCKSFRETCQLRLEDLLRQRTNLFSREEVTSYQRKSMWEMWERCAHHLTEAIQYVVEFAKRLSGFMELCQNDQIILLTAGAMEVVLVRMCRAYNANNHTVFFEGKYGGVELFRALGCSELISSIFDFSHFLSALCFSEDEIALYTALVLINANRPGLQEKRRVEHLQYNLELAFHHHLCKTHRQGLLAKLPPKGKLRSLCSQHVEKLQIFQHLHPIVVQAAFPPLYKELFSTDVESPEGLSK
# Assay: qHTS for inhibitors of ROR gamma transcriptional activity; note: nearly all actives have a fitted effect of over 60% in size
# Details: Drosophila S2 Gal4-RORgamma UAS-luciferase reporter, 20 h; series mostly up to 53.6 µM; activity change, negative = inhibition: at the top concentration
# Outline: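 In this cell-based reporter format, copper sulfate (700 uM final) drives Gal4–ROR gamma fusion expression from a metallothionein promoter in Drosophila Schneider cells; compounds preincubated 1 hr, reporter read after 20 hr at ambient temperature.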
# % is set by controls: 0 for no effect and ±100 for the full control effect; potency is the fitted concentration of half-maximal effect.
Structure (SMILES),Potency,"activity change, negative = inhibition"
Cc1ccsc1/C=N/NC(=O)c1sccc1C,active: 7.94 µM,–
CCOc1cc(CC(=O)N[C@@H](CC(C)C)c2ccccc2N2CCCCC2)ccc1C(=O)O,–,inactive: -14.5% [at 2.98 µM]
O=C(O)c1ccc(OCCn2ccnc2)cc1,–,inactive: -0.743%
Cc1noc(NS(=O)(=O)c2ccc(N/C=C/C(=O)c3ccc4c(c3)OCO4)cc2)c1C,–,inactive: 38.8%
COc1cccc([C@H](O)Cn2cc(-c3ccc(CON=C(C)C)cc3)nn2)c1,–,inactive: 0.926% [at 10 µM]
Cc1cc(/C=C2\NC(=S)NC2=O)c(C)n1-c1cccnc1,–,inactive: -13.3%
CCN1C(=NCCc2cccnc2)N[C@@H](c2ccccc2)[C@H](C(=O)OC)[C@H]1C,–,inactive: -1.07%
COc1ccc(Oc2ccc(N/C=C3\CCCC3=O)cc2)cc1,–,inactive: 38.8%
CC(C)c1ccc2c(c1)CCC1C(C)(CN)CCCC21C (stereo unspecified),–,inactive: 29.4%
Cc1cccc2sc(NNC(=O)c3ccc(S(=O)(=O)N4CCCC(C)C4)cc3)nc12 (stereo unspecified),active: 3.55 µM,–
CCOC(=O)[C@@H]1[C@H]2COc3ccccc3[C@@H]2N2C(=O)N(c3cccc(Cl)c3)C(=O)[C@]12C,–,inactive: -9.14%
O=C(Nc1nncs1)C(Sc1ccccc1)c1ccccc1 (stereo unspecified),active: 11.2 µM,–
COc1ccc(-c2nnc(-c3ccc(N(C)C)cc3)o2)cc1,active: 0.794 µM,–
CC(C)=NOc1cc(NC(=O)CCl)cc([N+](=O)[O-])c1,active: 10 µM,–
COc1cc2c(c(OC)c1OC)-c1c(cc(OC)c(OC)c1OC)C[C@H](C)[C@H](C)C2,–,inactive: 0.847%
COc1ccc2c(c1)O[C@H](c1ccc3c(c1)OCO3)[C@@H](OC(=O)NS(=O)(=O)c1ccc(C)cc1)C2=O,–,inactive: 3.97%
COC(=O)C1=C(C)N(CC2CC2)C(=O)N[C@H]1c1ccc(Br)cc1,–,inactive: 11.9%
O=C(c1cccc(Cl)c1)N1CCC(=O)N([C@H](COCc2cccc(Cl)c2)Cc2ccccc2)CC1,–,inactive: 4.82% [at 40.7 µM]
CC(=O)OC[C@@]1(O)C[C@]23CCC4c5ccoc5CC[C@@]4(C)C2CCC1C3 (stereo partly specified),–,inactive: -36.3%
CN(C)S(=O)(=O)c1cccc(C(=O)NC(=S)N(CCC#N)Cc2cccnc2)c1,active: 2 µM,–
CC1CCC(C(C)C)C(OC(=O)Cn2c(-c3ccccc3)[n+](C)c3ccccc32)C1 (stereo unspecified),–,inactive: -77.6%
Cc1ccc(-c2ccc(/C=C(\C#N)C(N)=S)n2C)cc1,active: 2.24 µM,–
C[C@@H]1CC[C@]2(O[C@@H](CCO)C[C@@H](O)[C@@H]2O)O1,–,inactive: -21.6%

Structure (SMILES),Potency,"activity change, negative = inhibition"
COc1ccc(C(=O)/C(C#N)=N/Nc2ccc([N+](=O)[O-])cc2)cc1,active: 5.62 µM,–
CC(C)OC(=O)C(C)(C)Oc1ccc(C(=O)c2ccc(Cl)cc2)cc1,inactive,–
CCOC(=O)[C@@H]1[C@H]2COc3ccc(Br)cc3[C@@H]2N2C(=O)N(c3ccccc3)C(=O)[C@]12C,–,inactive: 23.4%
CC[n+]1c(/C=C(/C)SC)sc2ccccc21,–,inactive: 59.5%
Oc1cccc(O)c1,–,inactive: 30.8%
O=C1CC(c2ccccc2)c2cc(O)ccc2O1 (stereo unspecified),active: 11.2 µM,–
CC(=O)/C=C(/C)NC(Cc1c[nH]c2ccccc12)C(=O)O (stereo unspecified),–,inactive: -0.87%
CCCn1c(=O)c2[nH]c(C3CCCC3)nc2n(CCC)c1=O,inactive,–
O=C(NCc1ccccc1)OCCN1CCN(Cc2ccccc2)CCC1=O,–,inactive: 3.95%
NC(Cc1cc(I)c(Oc2ccc(O)c(I)c2)c(I)c1)C(=O)O (stereo unspecified),–,inactive: 14.9%
NCCC(=O)N[C@H](Cc1cnc[nH]1)C(=O)O,–,inactive: -23.5%
O=C(NCc1ccccc1)C1=C[C@H](c2csc3ccccc23)C[C@H](OCc2ccc(CO)cc2)O1,–,inactive: 40.1%
CC1=NN(C(=O)Cc2ccc([N+](=O)[O-])cc2)C(O)(c2ccccc2)C1 (stereo unspecified),active: 8.91 µM,–
CC(C)(C)c1ccc(C(=O)Nc2ccc(CC(=O)O)cc2)o1,active: 0.794 µM,–
COC(=O)C1=C(C)N(Cc2ccco2)C(=O)N[C@H]1c1ccc(Br)cc1,–,inactive: 14.8%
COc1ccc(N/C=C/C(=O)c2ccc3c(c2)OCO3)cc1OC,–,inactive: 27%
COc1cc(O)c(C(CCN2CCCC(C)C2)c2cc(OC)c(OC)c(OC)c2)c(OC)c1 (stereo unspecified),–,inactive: 3.53%
O=C(NCc1ccccn1)[C@@H]1C[C@H]1[C@@H](NP(=O)(c1ccccc1)c1ccccc1)c1ccccc1,–,inactive: -6.58%
COc1ccc(C(=O)N/C(=C\c2cccc3ccccc23)C(=O)NCCc2c[nH]c3ccccc23)cc1OC,–,inactive: -1.7%
CC(C)CC(=O)NC(=S)Nc1cc(C(F)(F)F)ccc1N1CCOCC1,active: 7.94 µM,–
Fc1ccc(SCCc2ccccn2)cc1,–,inactive: -6.74%
CN(C)/C=N/c1cc(=O)n(C)c(=O)n1Cc1ccccc1,–,inactive: -19.2%
CC(=O)Nc1scc(C)c1-c1nc2ccccc2s1,active: 1.12 µM,–

Structure (SMILES),Potency,"activity change, negative = inhibition"
CCn1c(SCc2ccc(Cl)cc2Cl)nc2nc3c(cc2c1=O)CCCC3,active: 7.08 µM,–
COC(=O)[C@H](c1ccccc1Cl)N1CCc2sccc2C1,–,inactive: -17.4%
NC(=O)c1ccccc1O,inactive,–
Brc1ccc(C2=NC(Cc3ccccc3)CO2)cc1 (stereo unspecified),–,inactive: -33.4%
O=C(/C=C\c1ccc(-c2ccccc2)o1)c1ccccc1,–,inactive: 13.4%
O=C(NC1CCC(C(=O)O)CC1)OCc1ccccc1 (stereo unspecified),–,inactive: -6.86%
O=C(C1=C[C@@H](C2CC2)C[C@@H](OCc2ccc(CO)cc2)O1)N1CCN(Cc2ccc3c(c2)OCO3)CC1,–,inactive: 42.2%
Cc1c(Cl)cccc1Nc1ccccc1C(=O)O,inactive,–
Oc1cc2c(cc1O)[C@@H](c1ccccc1)CNCC2,–,inactive: -1.51%
COc1ccc(CN=C(Nc2ccccc2)SC2CC(=O)NC2=O)cc1 (stereo unspecified),active: 12.6 µM,–
O=C(N/N=C/c1cccs1)c1ccc(-n2cccc2)cc1,active: 6.31 µM,–
C=C1CCN(C(CC(C)C)C(=O)OC)S(=O)(=O)c2ccccc21 (stereo unspecified),–,inactive: 2.07%
CCO[C@@H]1OC(C(=O)Nc2ccccc2)=C[C@H](c2ccc(Br)cc2)[C@H]1CCCO,–,inactive: -2.79%
Cc1cc2nc(N)sc2cc1C,–,inactive: -32.3%
CC(C)NC[C@H](O)c1ccc2ccccc2c1,–,inactive: 5.65% [at 16.9 µM]
Cc1cc(-c2ccc(N=Nc3ccc4c(S(=O)(=O)O)cc(S(=O)(=O)O)c(N)c4c3O)c(C)c2)ccc1N=Nc1ccc2c(S(=O)(=O)O)cc(S(=O)(=O)O)c(N)c2c1O,–,inactive: 15.3%
CN1CCN(CC/C=C2/c3ccccc3Sc3ccc(S(=O)(=O)N(C)C)cc32)CC1,–,inactive: -89.5%
Cc1cc(N2CCOCC2)nc2ccc(NC(=S)NCc3ccc4c(c3)OCO4)cc12,active: 22.4 µM,–
COc1ccc(C2CC(=O)Oc3ccc(C(C)(C)C)cc32)cc1 (stereo unspecified),–,inactive: 19.3%
COc1cccc([C@@H]2Oc3ccc(OC)cc3C(=O)[C@H]2O)c1,active: 12.6 µM,–
C[C@]12C=CC(=O)C=C1CC[C@@H]1[C@@H]2C(=O)C[C@@]2(C)[C@H]1CC[C@]2(O)C(=O)CO,–,inactive: 4.18%
CC(C)[C@H](NC(=O)N1CCn2c1nc1ccccc12)C(=O)N[C@@H](C(=O)O)c1ccccc1,–,inactive: -2.56%
Cc1nc2ccccn2c1C(=O)/C=C/c1ccc(F)cc1,active: 8.91 µM,–

Structure (SMILES),Potency,"activity change, negative = inhibition"
S=C(Nc1ccc(Oc2ccccc2)cc1)NC1CCCC1,active: 5.01 µM,–
Nc1nc2ccccc2n1C(=O)c1ccco1,active: 11.2 µM,–
C#CCNC(=O)C1=C[C@@H](c2ccc(Br)cc2)C[C@@H](OCc2ccc(CO)cc2)O1,–,inactive: 38.6%
CC[C@H](C)C(=O)O[C@H]1CCC=C2C=C[C@H](C)[C@H](CC[C@@H]3C[C@H](O)CC(=O)O3)[C@H]21,–,inactive: 23.8%
NNC(=O)[C@@H]1C[C@@H]1c1ccccc1,–,inactive: -6.66% [at 10 µM]
C[C@H]1C[C@H]2[C@@H]3CCC4=CC(=O)C=C[C@]4(C)[C@@]3(Cl)[C@@H](O)C[C@]2(C)[C@@]1(O)C(=O)CO,–,inactive: -23.4%
NC(=S)N/N=C/c1cn(-c2ccccc2)nc1-c1cccnc1,active: 6.31 µM,–
CC1CCN(CCNC(=O)c2ccc3c(=O)n(Cc4ccc(Cl)cc4)c(=S)[nH]c3c2)CC1,active: 11.2 µM,–
C[C@@H]1CC[C@@]2(O[C@H](CCO)C[C@H](O)[C@H]2O)O1,–,inactive: -4.8%
Cc1cc(OC(=O)c2c(C)cc(O)cc2O)cc(O)c1C(=O)O,–,inactive: -38%
O=C(COc1ccc(Cl)cc1Cl)NNC(=S)NC(=O)c1ccco1,active: 11.2 µM,–
S=C1NC[C@H](Cc2ccccc2)N1CCc1cccc2ccccc12,active: 1 µM,–
CCCCC[C@H](O)/C=C/[C@@H]1[C@@H](C/C=C\CCCC(=O)O)[C@H]2CO[C@@H]1C2,–,inactive: 0.827%
COC(=O)[C@@H]1CC[C@H](C)[C@@H](c2ccc(C)cc2)N1C(=O)c1ccc(/C=N\O[C@@H](C)c2cn([C@H](CO)Cc3ccccc3)nn2)cc1,–,inactive: -18.6% [at 10 µM] and inactive: -4.03% [at 10 µM]
CC[C@H](C)[C@@H](NC(=O)O[C@@H]1C(=O)c2cc(Br)ccc2O[C@H]1c1ccc2c(c1)OCO2)C(=O)OC,–,inactive: 28.7%
COc1cc(C2c3cc4c(cc3C(OC3OC5COC(C)O[C@@H]5C(O)C3O)C3COC(=O)C23)OCO4)cc(OC)c1O (stereo partly specified),–,inactive: -31.9%
CSc1ccc(/C=N/Nc2nc(C)cc(C)n2)cc1,active: 11.2 µM,–
CCC1=C(OC(=O)N(CC)CC)N2C(=O)OC(=NCc3ccccc3)[C@]2(C)[C@H]2C1=CC[C@H]1C(=O)NC(=O)[C@H]12,–,inactive: 3.8%
COc1ccc(C2/C=C\CN(C(=O)CC(C)C)CC(=O)N2Cc2ccc(F)cc2)cc1 (stereo unspecified),–,inactive: 27.7%
Clc1cccc(Cl)c1CO/N=C/c1c(-c2ccccc2)nc2n1CCS2,active: 7.08 µM,–
CCOC(=O)[C@@H]1[C@H]2COc3ccccc3[C@H]2N2C(=O)N(c3ccc(F)cc3)C(=O)[C@]12C,–,inactive: 2.15%
COc1cc2c(cc1NC(=S)NC(=O)/C=C/c1ccco1)oc1ccccc12,active: 3.16 µM,–
CC1=C(C(=O)OCc2ccccc2)C(c2ccc(C(C)(C)C)cc2)NC(=O)N1CCCCCC(=O)O (stereo unspecified),–,inactive: -0.537%

Structure (SMILES),Potency,"activity change, negative = inhibition"
COC(=O)[C@H](C)[C@H]1C[C@]1(C)[C@H](NC(=O)OCc1ccccc1)c1ccccc1,–,inactive: 13.7%
COC1=C(OC)C(=O)C(CCCCCCCCCCO)=C(C)C1=O,–,inactive: -17.5% [at 10 µM]
COC(=O)c1ccc(NC(=S)Nc2ccccn2)cc1,active: 1 µM,–
CCCNC(=S)NNC(=O)c1cc(C2CC2)nc2ccccc12,active: 11.2 µM,–
C#CCNC(=O)C1=C[C@H](c2csc3ccccc23)C[C@H](OCc2ccc(CO)cc2)O1,–,inactive: 28.1%
CCn1c(-c2ccccc2)c(C(=O)CCl)c2ccccc21,active: 11.2 µM,–
C[C@]12C(=O)N(c3ccc(C(F)(F)F)cc3)C(=O)N1[C@@H]1c3ccccc3OC[C@@H]1[C@H]2c1ccccc1,–,inactive: -9.06%
O=c1oc2ccccc2cc1-c1nc(-c2ccccc2)no1,active: 11.2 µM,–
CCCCCOc1ccc(CSCCNC(=S)Nc2ccccc2)cc1,active: 3.16 µM,–
COCCNC(=O)[C@H](C)[C@H]1C[C@]1(C)[C@H](NC(=O)OCc1ccccc1)c1ccccc1,–,inactive: -21.4%
COc1ccc(C(=O)NC2=NCCS2)cc1S(=O)(=O)N1CCCCC1C (stereo unspecified),active: 14.1 µM,–
CSc1ccc(NC(=O)Nc2cc(C)ccn2)cc1,active: 8.91 µM,–
CCOc1ccc(C(=O)NC(=S)Nc2cccnc2)cc1[N+](=O)[O-],active: 14.1 µM,–
Cc1cc(Cl)ccc1NC(=S)Nc1cccnc1,active: 12.6 µM,–
CC1=NN(c2nc(-c3ccc(Cl)cc3)cs2)C(=O)C1,active: 10 µM,–
NC(=S)N/N=C/c1ccc(Br)o1,active: 3.55 µM,–
C=CC[C@@H]1/C=C(\C)C[C@H](C)C[C@H](OC)[C@H]2O[C@@](O)(C(=O)C(=O)N3CCCC[C@H]3C(=O)O[C@H](/C(C)=C/[C@@H]3CC[C@@H](O)[C@H](OC)C3)[C@H](C)[C@@H](O)CC1=O)[C@H](C)C[C@@H]2OC,inactive,–
Cc1ccc(N2CN(Cc3ccco3)CNC2=S)cc1,active: 11.2 µM,–
COc1ccc2c(c1)C(=O)[C@@H](O)[C@H](c1ccc(OC)c(Br)c1)O2,–,inactive: -38.9%
